Laboratory results published in a protein production outcome set (Wang et al. 2014).

Test: label from the status in PepcDB records

Q: With “ASCDSFNEDLPECRLSVKFKYDYNMEFADAFHAQVDKVELYVFDKNGKYLFKQAEEGSALSTGNYLMEVELPVGQYQFMAWAGARDSYDITSLTPGVSTLTDLKLKLKREASLIINKRMETLWYGEVINVNFDGTVHQTETINLIRDTKIVRFGFQSYTGSWTLDMNDYDYEIIESNGHLGHDNSLLDDDVLSFRPYYMEQKDPATAYVDMNTMRLMEDRKTRLVLTEKASGKRVFDINLIDYLAMTNAEGKNLSTQEYLDRQSNYHIIFFLSESWLAVQIVVNGWVHRIQEENQ” as the sequence, how does the protein production read?
A: not failed

Q: For “MALSYRVSELQSTIPEHILQSTFVHVISSNWSGLQTESIPEEMKQIVEEQGNKLHWAALLILMVIIPTIGGNTLVILAVSLEKKLQYATNYFLMSLAVADLLVGLFVMPIALLTIMFEAMWPLPLVLCPAWLFLDVLFSTASIMHLCAISVDRYIAIKKPIQANQYNSRATAFIKITVVWLISIGIAIPVPIKGIETDVDNPNNITCVLTKERFGDFMLFGSLAAFFTPLAIMIVTYFLTIHALQKKAYLVKNKPPQRLTWLTVSTVFQRDETPCSSPEKVAMLDGSRKDKALPNSGDETLMRRTSTIGKKSVQTISNEQRASKVLGIVFFLFLLMWCPFFITNITLVLCDSCNQTTLQMLLEIFVWIGYVSSGVNPLVYTLFNKTFRDAFGRYITCNYRATKSVKTLRKRSSKIYFRNPMAENSKFFKKHGIRNGINPAMYQSPMRLRSSTIQSSSIILLDTLLLTENEGDKTEERVSYV”, which protein production is on record?
A: failed

Q: Which protein production does the source give for “MANASEPGGSGGGEAAALGLKLATLSLLLCVSLAGNVLFALLIVRERSLHRAPYYLLLDLCLADGLRALACLPAVMLAARRAAAAAGAPPGALGCKLLAFLAALFCFHAAFLLLGVGVTRYLAIAHHRFYAERLAGWPCAAMLVCAAWALALAAAFPPVLDGGGDDEDAPCALEQRPDGAPGALGFLLLLAVVVGATHLVYLRLLFFIHDRRKMRPARLVPAVSHDWTFHGPGATGQAAANWTAGFGRGPTPPALVGIRPAGPGRGARRLLVLEEFKTEKRLCKMFYAVTLLFLLLWGPYVVASYLRVLVRPGAVPQAYLTASVWLTFAQAGINPVVCFLFNRELRDCFRAQFPCCQSPRTTQATHPCDLKGIGL” here?
A: failed

Q: Which protein production does the source give for “MGNASNDSQSEDCETRQWLPPGESPAISSVMFSAGVLGNLIALALLARRWRGDVGCSAGRRSSLSLFHVLVTELVFTDLLGTCLISPVVLASYARNQTLVALAPESRACTYFAFAMTFFSLATMLMLFAMALERYLSIGHPYFYQRRVSRSGGLAVLPVIYAVSLLFCSLPLLDYGQYVQYCPGTWCFIRHGRTAYLQLYATLLLLLIVSVLACNFSVILNLIRMHRRSRRSRCGPSLGSGRGGPGARRRGERVSMAEETDHLILLAIMTITFAVCSLPFTIFAYMNETSSRKEKWDLQALRFLSINSIIDPWVFAILRPPVLRLMRSVLCCRISLRTQDATQTSCSTQSDASKQADL” here?
A: not failed

Q: Which protein production does the source give for “MTEVLWPAVPNGTDAAFLAGPGSSWGNSTVASTAAVSSSFKCALTKTGFQFYYLPAVYILVFIIGFLGNSVAIWMFVFHMKPWSGISVYMFNLALADFLYVLTLPALIFYYFNKTDWIFGDAMCKLQRFIFHVNLYGSILFLTCISAHRYSGVVYPLKSLGRLKKKNAICISVLVWLIVVVAISPILFYSGTGVRKNKTITCYDTTSDEYLRSYFIYSMCTTVAMFCVPLVLILGCYGLIVRALIYKDLDNSPLRRKSIYLVIIVLTVFAVSYIPFHVMKTMNLRARLDFQTPAMCAFNDRVYATYQVTRGLASLNSCVDPILYFLAGDTFRRRLSRATRKASRRSEANLQSKSEDMTLNILPEFKQNGDTSL” here?
A: failed
